Assay results: the supplement of paper PMC10126150
Values marked as one replicate rest on one cluster of the flow cell; about a third of the high ones do not repeat.

System: ATP
Assay: switch fluorescence ratio, 500 uM ATP over buffer (Cy3 cluster intensity, sum of 5 cycles each) (fold (ratio)); higher = stronger signal-on switching upon ATP binding; sequences stand for … in TCGTCGGCAGCGTCAGATGTGTATAAGAGACAGTTTTTTTTTTTTTTTTTTTTTTTTT…TC
Settings: aptamer strand: ATP DNA aptamer (quencher-CACCTGGGGGAGTATTGCGGAGGAAGG + anchor), 100 nM annealed; ATP concentration: 500 uM; one replicate
Method in brief: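 After annealing to 100 nM quencher-labelled ATP aptamer, Cy3-labelled switching-strand clusters on a modified Illumina MiSeq flow-cell were imaged in selection buffer. A second image followed after 15 min with 500 uM ATP at 22 °C, and five such buffer/ATP cycles were done, each separated by NaOH stripping and re-annealing. The fluorescence ratio, averaged per switch-domain sequence, is summed target-cycle over summed buffer-cycle Cy3 intensity per cluster, with clusters outside 100-1000 RFU excluded.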
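Further: ATP exposure 15 min at 22 °C before imaging.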

| Sequence | switch fluorescence ratio |
| --- | --- |
| CCAAGCGTAG | 1.08 |
| TCGTCTTGGG | 1.01 |
| AGTTATTACG | 1.01 |
| TGTACCAGTA | 0.988 |
| ATTACATGCA | 1.02 |
| ACATCCTGGT | 0.998 |
| CGGCTGATGG | 1.05 |
| TAAGGCACCT | 1.21 |
| GCGGTCCTAT | 0.961 |
| TTGCGTTATT | 1 |
| CTCTGACACG | 1.06 |
| GTTCCACTAG | 0.995 |
| AAAGCGTTAT | 0.983 |
| CATTAGATTT | 0.971 |
| GATAGTGGAG | 1.01 |
| ATCCCTGTTT | 0.959 |
| TCATAGGCTT | 1.03 |
| GGTTTTGCGC | 0.99 |
| CGATGAAGGA | 1.03 |
| TGGCGATACG | 1.15 |
| GGTTAATAAA | 1.01 |
| GTACCCACGC | 1.38 |
| ATTGAGCACT | 1.05 |

| Sequence | switch fluorescence ratio |
| --- | --- |
| CAGGGTAGAC | 1 |
| AGAGGCAGG | 1.02 |
| ATCATCGTTC | 0.996 |
| TGTAGATCGG | 0.981 |
| CCCACGCGAT | 1.6 |
| ACTGGTCGTG | 0.981 |
| TAAGGAATAT | 1.06 |
| TATCCGCTCC | 2.39 |
| CGGCAGGCCG | 1.04 |
| GCGGCTGC | 1 |
| TTCTATGACA | 1.02 |
| TCATCTGAGC | 0.992 |
| CTCTCCAGGA | 1.16 |
| TGGGTTCAAC | 1.02 |
| AGGTTAAGAA | 0.954 |
| GGTTTATCG | 0.961 |
| CCAAGTTAGT | 1.08 |
| ATGTGGCGGA | 1.05 |
| AAATAGACCT | 1.64 |
| TACAAACGTT | 1.15 |
| AAGTGCAGAG | 0.98 |
| ATACTCGCGC | 1.19 |
| AAGAGGCTAT | 1.01 |

| Sequence | switch fluorescence ratio |
| --- | --- |
| TGCCAGTCGT | 1.03 |
| ACTCAGCGGC | 1.96 |
| CTCCGGGT | 1.42 |
| GGATGTAGA | 1.02 |
| CGAGAGTTC | 1.01 |
| GGGCTTCCGG | 1.05 |
| AGCCACCCAC | 1.6 |
| TACAGTAACA | 1.12 |
| GCTGCATGGG | 1.06 |
| AATAGGCTTA | 0.993 |
| CGGAGATGC | 1.23 |
| ACCTCTTAGT | 0.973 |
| CAGTTCCCAG | 1.02 |
| CGCGCGATGA | 1.03 |
| GACGGTACTT | 1.48 |
| CAAACGGTGA | 0.982 |
| ACCCCGGGGG | 1.01 |
| GGATTGTAGC | 0.99 |
| GTTGAGCAAT | 2.89 |
| GTAATTTGTC | 1.01 |
| TGAGCTCGCG | 0.962 |
| AATTGGTGAT | 0.975 |
| GTGTTGAAAT | 1.02 |

| Sequence | switch fluorescence ratio |
| --- | --- |
| ATTTATAAGA | 1.04 |
| ATAGTAGCAC | 1.01 |
| TTTGGAAGAA | 0.995 |
| CGCCTCTAGT | 1.03 |
| ACCTTGCCCT | 1.1 |
| TTTCAAACCA | 1 |
| CGGGAGGTTG | 0.961 |
| CGATATTGA | 1.02 |
| CTGAGACGCC | 1.02 |
| ATGGCCCCCC | 0.986 |
| TGAATTACTT | 0.97 |
| TGGTTTAACC | 0.998 |
| CACTCCTGTT | 1.01 |
| CCATGCTTTG | 1 |
| TCGTCTACAC | 1.16 |
| GTGTCTATAG | 0.993 |
| ATCCGCGCCT | 1.59 |
| TCGTTGACTC | 1.04 |
| AGGTTGCGGA | 0.916 |
| CCCTGTCCCG | 1.06 |
| TTGGTTCTTG | 1.01 |
| GCCATATTCT | 1 |
| GGTAGCGGCT | 1.06 |

| Sequence | switch fluorescence ratio |
| --- | --- |
| TGATAGACTC | 1.03 |
| GCGAATGTTG | 0.963 |
| ATACTGGTTA | 1.02 |
| CAATGATCGG | 1.03 |
| CTGTCACACG | 1.03 |
| TCGTCTCCAT | 0.972 |
| CATTGCCAGC | 1.01 |
| AAGCATGGAG | 1 |
| CGGATTGTCT | 1.07 |
| GTTGGTTTGC | 1.02 |
| GAGGGTTAAC | 1.39 |
| TTCCAGACGT | 0.947 |
| TTGGCTACTC | 1.15 |
| TTCAATCGTT | 1.03 |
| AGTGGGTCCC | 1.02 |
| CGAACAGACG | 1.07 |
| AGCCCCTTA | 0.997 |
| ACTGGGGCGC | 0.972 |
| GAATTATGCG | 0.945 |
| ATGTTTAGC | 0.992 |
| GCATCTACTA | 1.03 |
| AGTTAAGGCT | 1 |
| CACTTACATA | 1.26 |

| Sequence | switch fluorescence ratio |
| --- | --- |
| CATAATGTAG | 0.99 |
| GAGGGGTCTC | 1.05 |
| ACTTGCTGGA | 1.01 |
| CGTGGTCGGC | 1 |
| ACCAGAAC | 1.04 |
| AGATAAAATC | 0.984 |
| TCATAGGGGG | 1.04 |
| AATTATAGGA | 1.02 |
| TGTTCAAG | 1.01 |
| ACCATAAACT | 1.12 |
| CAATTCTAGA | 0.947 |
| TCACCTTCTT | 1.23 |
| GGGTTCTAGC | 0.971 |
| TTACGGCACG | 1.07 |
| TGTCGTATTG | 1.01 |
| CTAATTGG | 1.03 |
| TTTAGAACCC | 1.08 |
| CATCTGCAG | 2.94 |
| AAGTTCTTTT | 1.02 |
| TGAGGCCCGT | 0.956 |
| ATGGCAGAG | 1.07 |
| TGGTATG | 0.965 |
| CAGGCTGATG | 1.01 |

| Sequence | switch fluorescence ratio |
| --- | --- |
| GCTCACGGCG | 1.03 |
| CACTAATCGA | 1.03 |
| GAGGAAATT | 2.61 |
| TCACTTTAGG | 0.992 |
| TTTTTACATA | 1.05 |
| ATTTGTACCT | 1.01 |
| ATCGCCAATT | 1.05 |
| GCTAACTATG | 1.03 |
| AGCACGGGCG | 1.11 |
| AAATAGTTCT | 1.14 |
| ATACAGTGAG | 0.981 |
| CGAGGCTGGG | 1.04 |
| GAATTTCTGT | 1.02 |
| ATTCAACTTG | 1.26 |
| GGTATGTCGC | 1.08 |
| AAAACGTGCG | 0.976 |
| TATTTCCAAG | 0.976 |
| ATACCGCTGC | 1.59 |
| TGCTTCTTAG | 1 |
| GCATCGTAGG | 0.989 |
